# According to the supplement of paper PMC8728848:
# The list shows a part of the results.
# Columns and labels:
# Assay in all cases: glycan array binding signal (z-score within array); higher = stronger binding
# Conditions in all cases: glycan notation: IUPAC condensed, linker removed
# [1] = target: Gal3S(b1-4)Glc
# Procedure, shortened: (§1)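 The Consortium for Functional Glycomics database supplied 3228 glycan arrays, of which those lacking an available protein sequence were dropped. The binding signal, a within-array Z-score, was averaged across arrays of the same protein sequence and across linkers. Negative scores can be read as non-binding.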
# [2] = target: Gal3S(b1-4)Glc6S
# Procedure, shortened: as §1
# [3] = target: Gal3S(b1-4)GlcNAc
# Procedure, shortened: as §1
# [4] = target: Gal3S(b1-4)[Fuc(a1-3)]Glc6S
# Procedure, shortened: as §1
# [5] = target: Gal3S(b1-4)[Fuc(a1-3)]GlcNAc
# Procedure, shortened: as §1
# [6] = target: Gal3S(b1-4)[Fuc(a1-3)]GlcNAc6S
# Procedure, shortened: as §1
# [7] = target: Gal3S4S(b1-4)GlcNAc
# Procedure, shortened: as §1
# [8] = target: Gal3S6S(b1-4)GlcNAc
# Procedure, shortened: as §1
# [9] = target: Gal3S6S(b1-4)GlcNAc6S
# Procedure, shortened: as §1
# [10] = target: Gal4S(b1-4)GlcNAc
# Procedure, shortened: as §1
# [11] = target: Gal4S6S(b1-4)GlcNAc
# Procedure, shortened: as §1
# [12] = target: Gal6P(b1-4)GlcNAc
# Procedure, shortened: as §1
# [13] = target: Gal6S(b1-3)GlcNAc
# Procedure, shortened: as §1
# [14] = target: Gal6S(b1-3)GlcNAc6S
# Procedure, shortened: as §1
# [15] = target: Gal6S(b1-4)Glc
# Procedure, shortened: as §1
# [16] = target: Gal6S(b1-4)Glc6S
# Procedure, shortened: as §1
# [17] = target: Gal6S(b1-4)GlcNAc
# Procedure, shortened: as §1
# [18] = target: Gal6S(b1-4)GlcNAc6S
# Procedure, shortened: as §1
# [19] = target: GalNAc(a1-3)Gal
# Procedure, shortened: as §1
# [20] = target: GalNAc(a1-3)GalNAc
# Procedure, shortened: as §1
# [21] = target: GalNAc(a1-3)GalNAc(b1-3)Gal(a1-4)Gal(b1-4)Glc
# Procedure, shortened: as §1
# [22] = target: GalNAc(a1-3)GalNAc(b1-3)Gal(a1-4)Gal(b1-4)GlcNAc
# Procedure, shortened: as §1
# [23] = target: GalNAc(b1-3)Gal
# Procedure, shortened: as §1
# [24] = target: GalNAc(b1-3)Gal(a1-4)Gal(b1-4)GlcNAc
# Procedure, shortened: as §1
# [25] = target: GalNAc(b1-3)Gal(a1-4)Gal(b1-4)GlcNAc(b1-3)Gal(b1-4)Glc
# Procedure, shortened: as §1
# [26] = target: GalNAc(b1-3)Gal(a1-6)Gal(b1-4)Glc
# Procedure, shortened: as §1
# [27] = target: GalNAc(b1-3)GalNAc
# Procedure, shortened: as §1
# [28] = target: GalNAc(b1-3)GlcNAc
# Procedure, shortened: as §1
# [29] = target: GalNAc(b1-4)Gal(b1-4)Glc
# Procedure, shortened: as §1
# [30] = target: GalNAc(b1-4)GlcNAc
# Procedure, shortened: as §1
# [31] = target: GalNAc(b1-4)GlcNAc(b1-2)Man
# Procedure, shortened: as §1
# [32] = target: GalNAc(b1-4)GlcNAc(b1-2)Man(a1-3)[GalNAc(b1-4)GlcNAc(b1-2)Man(a1-6)]Man(b1-4)GlcNAc(b1-4)GlcNAc
# Procedure, shortened: as §1
# [33] = target: GalNAc(b1-4)GlcNAc(b1-3)GalNAc(b1-4)GlcNAc
# Procedure, shortened: as §1
# [34] = target: GalNAc(b1-4)GlcNAc6S
# Procedure, shortened: as §1
# [35] = target: GalNAc(b1-6)GalNAc
# Procedure, shortened: as §1
# [36] = target: GalNAc3S(b1-4)GlcNAc
# Procedure, shortened: as §1
# [37] = target: GalNAc3S(b1-4)GlcNAc3S
# Procedure, shortened: as §1
# [38] = target: GalNAc3S(b1-4)[Fuc(a1-3)]GlcNAc
# Procedure, shortened: as §1
# [39] = target: GalNAc4S6S(b1-4)GlcNAc
# Procedure, shortened: as §1
# [40] = target: GalNAc6S(b1-4)GlcNAc
# Procedure, shortened: as §1
# [41] = target: Glc(a1-4)Glc
# Procedure, shortened: as §1
# [42] = target: Glc(a1-4)Glc(a1-4)Glc(a1-4)Glc
# Procedure, shortened: as §1
# [43] = target: Glc(a1-6)Glc(a1-6)Glc
# Procedure, shortened: as §1
# [44] = target: Glc(a1-6)Glc(a1-6)Glc(a1-6)Glc
# Procedure, shortened: as §1
# [45] = target: Glc(b1-4)Glc
# Procedure, shortened: as §1
binder,measurement,setting,value
EULS2 M2 (Oryza sativa) (protein) MVYCRANPNYAMTARNGAVVLAPANPKDEYQHWIKDMRWSTSIKDEEGYPAFALVNKATGQAIKHSLGQSHPVRLVPYNPEVMDESVLWTESRDVGNGFRCIRMVNNIYLNFDAFHGDKYHGGVRDGTDIVLWKLCEGDSQRWKIQPYYILEQKLISEEDLNSAVDHHHHHH,glycan array binding signal (z-score),[1],0.35
same,glycan array binding signal (z-score),[2],1.07
same,glycan array binding signal (z-score),[3],-0.16
same,glycan array binding signal (z-score),[4],0.271
same,glycan array binding signal (z-score),[5],-0.309
same,glycan array binding signal (z-score),[6],3.8
same,glycan array binding signal (z-score),[7],1.61
same,glycan array binding signal (z-score),[8],1.73
same,glycan array binding signal (z-score),[9],13.3
same,glycan array binding signal (z-score),[10],-0.614
same,glycan array binding signal (z-score),[11],1.33
same,glycan array binding signal (z-score),[12],-0.418
same,glycan array binding signal (z-score),[13],-0.324
same,glycan array binding signal (z-score),[14],4.18
same,glycan array binding signal (z-score),[15],-0.399
same,glycan array binding signal (z-score),[16],4.74
same,glycan array binding signal (z-score),[17],-0.408
same,glycan array binding signal (z-score),[18],2.72
same,glycan array binding signal (z-score),[19],0.765
same,glycan array binding signal (z-score),[20],-0.111
same,glycan array binding signal (z-score),[21],-0.433
same,glycan array binding signal (z-score),[22],-0.254
same,glycan array binding signal (z-score),[23],0.373
same,glycan array binding signal (z-score),[24],-0.716
same,glycan array binding signal (z-score),[25],-0.075
same,glycan array binding signal (z-score),[26],0.855
same,glycan array binding signal (z-score),[27],0.901
same,glycan array binding signal (z-score),[28],-0.575
same,glycan array binding signal (z-score),[29],0.105
same,glycan array binding signal (z-score),[30],-0.429
same,glycan array binding signal (z-score),[31],-0.096
same,glycan array binding signal (z-score),[32],1
same,glycan array binding signal (z-score),[33],1.16
same,glycan array binding signal (z-score),[34],0.197
same,glycan array binding signal (z-score),[35],0.2
same,glycan array binding signal (z-score),[36],-0.447
same,glycan array binding signal (z-score),[37],0.228
same,glycan array binding signal (z-score),[38],-0.834
same,glycan array binding signal (z-score),[39],1.25
same,glycan array binding signal (z-score),[40],0.235
same,glycan array binding signal (z-score),[41],0.157
same,glycan array binding signal (z-score),[42],-0.217
same,glycan array binding signal (z-score),[43],0.123
same,glycan array binding signal (z-score),[44],-0.066
same,glycan array binding signal (z-score),[45],-0.299
